Results on 96 compounds are retold here after PubChem BioAssay AID1508623 (National Center for Advancing Translational Sciences (NCATS), 2021).

In all, about 48,000 compounds went through this assay and about 450 (0.94%) were called active. Roughly 19% stayed inconclusive and do not appear here. Calls follow the shape of the dose curve; as a rule, active = well fitted inhibition curve with a large enough effect; inconclusive = small, poorly fitted or top-dose-only effect; inactive = no such curve, though single readings can be large or run the other way. Some of the results follow.

The assay in a line: Primary qHTS for Identification of Small Molecule Inhibitors of Huntingtin Promoter Activity. Also: nearly all actives have a fitted effect of over 50% in size. Conditions: HEK293 HTT promoter firefly luciferase reporter (activity 0% = vehicle and -100% = no light), 24 h; series mostly up to 57.5 µM; activity change, negative = inhibition: at the top concentration. The essentials:
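HEK293 luciferase promoter-reporter cells (2,500/well) plated 24 h, then compounds added at up to 57.5 uM final for 24 h at 37 °C. Firefly luminescence by Dual-Glo, normalized to vehicle (0%) and zero RLU (-100%).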
Background: In qHTS, concentration-response curves come from the screen itself.
For the compound `COC(=O)c1c(-c2cccs2)csc1NC(=O)COc1ccc(C(C)(C)C)cc1`, the “activity change, negative = inhibition” value is inactive: -17.7%.
Take `CCOc1ccccc1C1C(C(=O)N2CCCCC2)=C(C)Nc2nc3ccccc3n21` (stereo unspecified): the “activity change, negative = inhibition” value is inactive: 0.564%.
Then `CCOc1ccccc1NC(=O)c1nn(-c2ccc(C)cc2)c(=O)n(C)c1=O`, with inactive: -11.8%.
Turning to `Cc1ccc(C(=O)Nc2ccc(-c3cn4cccnc4n3)cc2)cc1C`, the “activity change, negative = inhibition” value is inactive: 31.5%.
Then `COc1ccccc1CNc1ccc(-c2nc(-c3cccnc3)no2)cc1[N+](=O)[O-]`, with inactive: 4.65%; and `CCc1ccc(NC(=O)c2sc(-n3nc(C)c(Cc4ccc(OC)cc4)c3C)nc2C)cc1`, with inactive: -12.2%.
To `COc1cccc(NC(=O)CN2C(=O)c3cccnc3Oc3ccc(Cl)cc32)c1` belongs inactive: -3.04%.
To `COc1ccc(N(C)C(=O)CCn2cnc3onc(-c4ccc(F)cc4)c3c2=O)c(OC)c1` belongs inactive: -22.7%; to `N[C@@H](CSSC[C@H](N)C(=O)O)C(=O)O`, inactive: 9.26% [at 0.739 µM]; to `COc1ccc(C2CC(=O)N(CC(=O)Nc3cc(C)ccc3C)c3ccccc3S2)cc1` (stereo unspecified), inactive: -11.3%.
For `Cc1cc2n(n1)C(c1cc(C(C)(C)C)c(O)cc1O)Nc1ccccc1-2` (stereo unspecified), the “activity change, negative = inhibition” value is inactive: -28.2%.
Consider `CCOc1ccc(OCC)c(NC(=O)c2nnn(CC(=O)Nc3ccc(C)cc3C)c2N)c1`, for which the “activity change, negative = inhibition” value was inactive: -1.21%.
On to `COc1ccccc1CNC(=O)C(NS(=O)(=O)c1cccs1)C(C)C` (stereo unspecified), for which the “activity change, negative = inhibition” value was inactive: -12.5%.
As to `Cc1ccc(-c2nc3sc(CCNC(=O)c4ccc(Br)o4)c(C)n3n2)cc1`, the “activity change, negative = inhibition” value was inactive: 8.09%.
To `COc1ccc(-c2cc3ccc(O)c(CN4CCOCC4)c3oc2=O)cc1OC` belongs inactive: 5.3%.
Consider `CCCCOc1ccc(C(=O)Nc2cccc(-c3nc4cccnc4s3)c2)cc1`, for which the “activity change, negative = inhibition” value is inactive: -8.88%.
To `CCCCc1ccc(NC(=O)c2cc3c(=O)n4ccccc4nc3s2)cc1` belongs inactive: 1.28%; to `CCOc1ccc(NC(=O)CSc2nc3c(oc4ccccc43)c(=O)n2-c2ccccc2C)cc1`, inactive: -12%.
`Cc1ccc(NC(=O)NCCc2c(C)nn(C)c2C)cc1Cl`: the “activity change, negative = inhibition” value was inactive: 12.5%.
To `COc1ccc(C2=NN(CC(=O)NCCc3ccc(OC)c(OC)c3)C(=O)CC2)cc1` belongs inactive: 0.955%.
On to `CCCCN(CC)CCCNC(=O)CCN1N=C(c2ccc(OC)cc2)CCC1=O`, for which the “activity change, negative = inhibition” value is inactive: -18.3%.
`COc1cccc(CNC(=O)c2cc3c(s2)-c2ccccc2OC3)c1`: the “activity change, negative = inhibition” value is inactive: -5.44%.
To `COc1ccccc1NC(=O)C1=C(C)Nc2ncnn2C1c1ccccc1C(=O)O` (stereo unspecified) belongs inactive: -6.21%.
To `COc1ccc(NC(=O)c2cc(C3CC3)nc3c2c(C)nn3-c2ccccc2)cc1` belongs inactive: -18.8%.
To `CCOc1ccccc1C(=O)Nc1ccc2nc(N(CC)CC)cc(C)c2c1` belongs inactive: -1.24%; to `Cc1ccc(OCC(=O)Nc2nnc(SCc3cc(=O)c4ccccc4[nH]3)s2)cc1`, inactive: -12.4%; to `Cc1cc(N2CCCCC2)nc2ccc(NC(=O)c3cccc(Cl)c3)cc12`, inactive: -20.4%.
For `CCOc1ccc(CNS(=O)(=O)c2cc3c(cc2C)NC(=O)CO3)cc1OC`, the “activity change, negative = inhibition” value was inactive: -14%.
Then `CCCS(=O)(=O)N1CC(=O)N(c2ccc(Cl)cc2C)C(C)(C(=O)NC2CCCC2)C1` (stereo unspecified), with inactive: -8.59%; and `COc1cc2nc(NC(=O)c3ccc(S(=O)(=O)N4CCOCC4)cc3)sc2cc1OC`, with inactive: -10.9%; and `COc1ccc(NC(=O)CSC2=Nc3ccccc3C3=NC(CCC(=O)NC4CCCCC4)C(=O)N23)cc1` (stereo unspecified), with inactive: -11.4%.
For `CC(=O)c1cccc(NC(=O)C2CCN(S(=O)(=O)c3ccc4c(c3)oc(=O)n4C)CC2)c1`, the “activity change, negative = inhibition” value is inactive: -12%.
To `N[C@@H](CSCCCO)C(=O)O` belongs inactive: 0.684% [at 25.2 µM]; to `O=C(CSCc1ccccc1Cl)N1CCN(c2ccc(Cl)cc2)CC1`, inactive: -9.58%.
In the case of `COc1c(C)cccc1C(=O)Nc1cccc2ccc(C)nc12`, the “activity change, negative = inhibition” value is inactive: -23.2%.
To `CCOC(=O)C1CCN(C(=O)c2ccc(-n3ccc4ccccc43)s2)CC1` belongs inactive: 42%.
In the case of `O=C1CC[C@H](C(=O)N2CCCCC2)N1`, the “activity change, negative = inhibition” value was inactive: -3.72%.
As to `COc1ccc(Cn2ccn(Cc3cccc(OC)c3)c(=O)c2=O)cc1`, the “activity change, negative = inhibition” value is inactive: -28.6%.
As to `Cc1ccc(C(=O)c2cn(CC(=O)Nc3ccc(C)cc3Cl)c3nc(C)ccc3c2=O)cc1`, the “activity change, negative = inhibition” value was inactive: 0.632%.
To `CCOc1cc(CNC(=O)c2ccc3c(c2)NC(=O)C2CCCCN32)cc(OCC)c1OCC` (stereo unspecified) belongs inactive: -9.21%; to `Cc1cn2c(=O)cc(COC(=O)c3ccc(NC(=O)COc4ccccc4F)cc3)nc2s1`, inactive: -10.1%; to `CCOc1ccccc1OCCCn1c(-c2ccc(Cl)cc2)nc2ccccc2c1=O`, inactive: -16.1%.
To `Cc1cc(C)cc(-n2c(-c3ccccc3)c(C)n3c4c(=O)n(C)c(=O)n(C)c4nc23)c1` belongs inactive: -7.04%; to `COc1cc(C(=O)NCC(c2cccs2)S(=O)(=O)c2cccs2)cc(OC)c1OC` (stereo unspecified), inactive: -11.1%.
On to `CCOc1ccc(CCNC(=O)Cn2nc(CC)n3c(cc4ccccc43)c2=O)cc1`, for which the “activity change, negative = inhibition” value is inactive: 6.5%.
Then `CCOC(=O)c1[nH]c(C)c(CCC(=O)Nc2cc(C)ccc2OC)c1C`, with inactive: -12.5%; and `Cc1ccccc1CN1CCC(CNC(=O)c2c(C)oc3ncnc(N4CCCCC4)c23)CC1`, with inactive: 0%.
For the compound `CCC(Sc1nc(-c2ccccc2F)nc2c1Cc1c(CO)cnc(C)c1O2)C(=O)Nc1cc(C)ccc1C` (stereo unspecified), the “activity change, negative = inhibition” value was inactive: -16.8%.
Then `CCOc1ccc(CCNC(=O)C2=C(C)C(=O)OC23CCCCC3)cc1`, with inactive: -13.7%.
Then `Fc1ccc(-c2noc3ncnc(NCc4ccc(Cl)cc4)c23)cc1`, with inactive: -25.7%; and `O=C(CCn1c(=O)c2cccn2c2cccnc21)NCc1ccc(F)cc1`, with inactive: 0.648%; and `COc1cc(C2CC(=O)Oc3c2c(=O)n(C)c2ccccc32)ccc1O` (stereo unspecified), with inactive: -11.3%.
Turning to `CCOC(=O)C1CCN(S(=O)(=O)c2ccc3c(c2)N(C)C(=O)CC(=O)N3C)CC1`, the “activity change, negative = inhibition” value is inactive: -21%.
Regarding `COc1ccc(C(=O)NC2(C(F)(F)F)C(=O)Nc3c2c(=O)[nH]c(=O)n3CCc2ccc(OC)c(OC)c2)cc1` (stereo unspecified), the “activity change, negative = inhibition” value is inactive: -5.06%.
To `COc1ccc(-c2cc(C(C)=O)c(C)n2CCC(=O)Nc2cc(Cl)ccc2C)cc1` belongs inactive: -41.6%; to `O=C(COc1ccccc1)Nc1ccc2nc(SCCOc3ccccc3)sc2c1`, inactive: 3.97%; to `CCOC(=O)c1c(C)[nH]c(C)c1S(=O)(=O)N(C)CC(=O)Nc1ccc(C)cc1C`, inactive: -11%.
As to `Cc1ccc(NC(=O)Cn2c(=O)n(CC3CCCO3)c(=O)c3ccccc32)cc1` (stereo unspecified), the “activity change, negative = inhibition” value is inactive: -13.5%.
Consider `Cc1cc(C)c2oc(-c3cccc(NC(=O)COc4ccc([N+](=O)[O-])cc4)c3)nc2c1`, for which the “activity change, negative = inhibition” value was inactive: -26.1%.
Regarding `Cc1ccc(Cl)cc1N1CCN(C(=O)c2ccc(CS(=O)(=O)c3ccccc3C)o2)CC1`, the “activity change, negative = inhibition” value was inactive: -32.5%.
To `Cn1nc(C(=O)Nc2ccc(F)c(Cl)c2)c2c1-c1ccccc1S(=O)(=O)C2` belongs inactive: -16.9%; to `CC(=O)CSc1nnc2[nH]c(=O)cc(N)n12`, inactive: -9.17%.
On to `COc1cc(C2NC(=O)c3c(sc4c3CCN(C)C4)N2)cc(OC)c1OC` (stereo unspecified), for which the “activity change, negative = inhibition” value was inactive: 2.94%.
With `CCOc1cc2[nH]c(=O)n(Cc3ccc(C(=O)N4CCN(c5cccc(Cl)c5)CC4)cc3)c(=O)c2cc1OCC`, the “activity change, negative = inhibition” value was inactive: -20.2%.
With `CCc1ccc(CNC(=O)C2CCN(c3nn4cc(-c5ccc(F)cc5)nc4s3)CC2)cc1`, the “activity change, negative = inhibition” value is inactive: -4.65%.
To `COc1ccc(Br)cc1CN1C(=O)c2ccccc2C1C(=O)NC1CCCCCC1` (stereo unspecified) belongs inactive: -3.63%.
Then `O=C(Cn1c(=O)nc(-c2ccccc2)c2cc(Cl)ccc21)N1CCN(c2ccc(F)cc2)CC1`, with inactive: -3.61%; and `CCOC(=O)c1c(C)c(-c2ccccc2)n(CC(=O)NC2CCCCC2)c1C`, with inactive: -2.71%.
Regarding `COc1ccc(Cl)cc1NC(=O)c1nn(-c2ccc(C)cc2)c(=O)n(C)c1=O`, the “activity change, negative = inhibition” value is inactive: 1.23%.
As for `Cc1cccc(CNC(=O)CS(=O)(=O)c2cccc3nsnc23)c1`, the “activity change, negative = inhibition” value is inactive: -6.4%.
For the compound `COc1cc(NC(=O)Cn2cnc(S(=O)(=O)N3CCCC3)c2)cc(OC)c1OC`, the “activity change, negative = inhibition” value is inactive: -4.08%.
Then `COC(=O)C1=C(C)NC(C)=C(C(=O)OC(C)C)C1c1cccc2nonc12` (stereo unspecified), with inactive: -3.41%; and `CCN(C(=O)c1cnc2ccc(C)cn2c1=O)c1ccccc1`, with inactive: -7.52%.
Regarding `CCOC(=O)C1CCN(C(c2cccc(F)c2)c2c(O)cc(C)n(CCOC)c2=O)CC1` (stereo unspecified), the “activity change, negative = inhibition” value was inactive: -3.04%.
With `O=C1OC(OC(=O)c2cccnc2Nc2cccc(C(F)(F)F)c2)c2ccccc21` (stereo unspecified), the “activity change, negative = inhibition” value is inactive: -4.73%.
Turning to `Clc1ccc(-c2noc3ncnc(NCCc4ccccc4)c23)cc1`, the “activity change, negative = inhibition” value is inactive: -30.2%.
As to `CCc1ccc(NC(=O)C2CCN(c3nn4c(=O)cc(C)nc4s3)CC2)cc1`, the “activity change, negative = inhibition” value was inactive: -14.1%.
With `N#C[C@H]1C[C@H]2C[C@@H]2N1C(=O)[C@@H](N)C12CC3CC(CC(O)(C3)C1)C2`, the “activity change, negative = inhibition” value was inactive: -9.55%.
Regarding `O=C(Nc1ccc2c(c1)CCCN2C(=O)c1cccs1)c1ccccc1Cl`, the “activity change, negative = inhibition” value was inactive: -28%.
Then `COc1cc(OC)c(Nc2nc3ccc(C(=O)c4ccccc4)cc3n3c(C)nnc23)cc1Cl`, with inactive: -7.84%.
Then `O=c1nc2n(-c3ccccc3F)c3ccccc3cc-2c(=O)[nH]1`, with inactive: -18.1%.
Then `O=C(Nc1ccc(OC(F)(F)F)cc1)c1cc2ccccn2n1`, with inactive: -24.8%; and `CCOC(=O)c1c(NC(=O)c2ccc(S(=O)(=O)N(CC(C)C)CC(C)C)cc2)sc2c1CCN(C(=O)OCC)C2`, with inactive: -5.91%; and `CCC(=O)N(CCC(c1ccccc1)c1ccc2c(c1)OCO2)Cc1ccc(OC(C)C)cc1` (stereo unspecified), with inactive: -28.5%.
Turning to `COc1ccc(NC(=O)CSc2nnc(-c3nonc3NC(C)=O)n2-c2ccccc2)cc1`, the “activity change, negative = inhibition” value is inactive: -15.3%.
Then `COc1ccc(Cl)cc1NC(=O)c1sc2nc3n(c(=O)c2c1C)CCC3`, with inactive: -0.786%.
With `CCOc1ccc(CCNS(=O)(=O)c2cc(Br)cc3c2N(C(C)=O)CC3)cc1OCC`, the “activity change, negative = inhibition” value was inactive: -9.98%.
To `Cc1cc(C)n(-c2nc3ccccc3nc2Nc2cccc(C)c2C)n1` belongs inactive: -4.01%; to `COc1cc(Oc2ccnc3cc(OC)c(OC)cc23)ccc1NC(=O)NC(C)c1nccs1` (stereo unspecified), inactive: -13.5%.
To `CCN(CC)C(=O)Cn1c(=O)n(Cc2ccc(C(=O)NCCc3ccc(OC)c(OC)c3)cc2)c(=O)c2ccccc21` belongs inactive: 2.97%; to `Cc1ccc(-n2ncc(C(=O)NCc3ccco3)c2C2CCN(C(=O)OC(C)(C)C)CC2)c(C)c1`, inactive: -34.9%.
As to `CC(=O)c1ccc(N2C(=O)N(CC(=O)c3ccc(F)cc3)c3ccccc3S2(=O)=O)cc1`, the “activity change, negative = inhibition” value was inactive: -17%.
To `COc1ccc(S(=O)(=O)NCCc2csc(-c3ccc(F)cc3)n2)cc1F` belongs inactive: -14.5%; to `CCCCN(CCCNC(=O)c1cc(Nc2ccc(OC)c(OC)c2)nc2ccccc12)Cc1ccccc1`, inactive: -2.39%.
Then `CCOC(=O)C1=C(C)N=C2SCCC(=O)N2C1c1ccc(OCc2ccccc2)cc1` (stereo unspecified), with inactive: -28.5%; and `COc1cccc(C(=O)Nc2cccc(-c3cn4c(C)csc4n3)c2)c1OC`, with inactive: 10.3%.
